From publication PMC6919601, “Identification of Plasmodium dipeptidyl aminopeptidase allosteric inhibitors by high throughput screening” (PLoS ONE, 2019) come the findings set out here.

In all, about 110,000 compounds went through this assay and about 230 (0.21%) showed an effect of 50% or more. This is one part of the list.
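Note: 30 min substrate incubation versus DMSO and 10 µM JCP410 controls.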

Chain of DPAP1 (Q8IIJ9 whole entry, looked up): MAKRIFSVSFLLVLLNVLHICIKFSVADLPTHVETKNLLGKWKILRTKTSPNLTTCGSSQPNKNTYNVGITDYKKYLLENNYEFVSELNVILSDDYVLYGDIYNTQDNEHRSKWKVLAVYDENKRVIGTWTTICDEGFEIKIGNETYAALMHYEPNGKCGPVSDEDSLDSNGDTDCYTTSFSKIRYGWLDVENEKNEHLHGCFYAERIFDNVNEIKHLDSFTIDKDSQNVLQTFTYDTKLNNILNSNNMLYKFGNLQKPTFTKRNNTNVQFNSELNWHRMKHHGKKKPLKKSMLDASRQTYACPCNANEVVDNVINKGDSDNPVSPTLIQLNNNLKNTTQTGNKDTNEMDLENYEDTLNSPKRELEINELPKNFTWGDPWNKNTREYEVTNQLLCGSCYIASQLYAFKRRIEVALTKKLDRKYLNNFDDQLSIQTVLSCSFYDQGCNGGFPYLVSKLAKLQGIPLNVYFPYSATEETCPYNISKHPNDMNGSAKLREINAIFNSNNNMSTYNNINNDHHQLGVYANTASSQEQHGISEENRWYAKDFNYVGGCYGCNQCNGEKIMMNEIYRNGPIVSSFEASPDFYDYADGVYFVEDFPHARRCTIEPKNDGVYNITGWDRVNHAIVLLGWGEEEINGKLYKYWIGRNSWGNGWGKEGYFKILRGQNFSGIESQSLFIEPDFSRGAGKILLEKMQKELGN

The assay concerns the target DPAP1 (Plasmodium falciparum, UniProt Q8IIJ9). The assay can be described thus: primary screen, percent inhibition; read by cleavage of a fluorogenic dipeptide substrate; higher = more effect of the substance. The arrangement: species or system P. falciparum D10 trophozoite lysates; single well.
With `CCOC(=O)C1=CN(C(C)C)C=C(C(=O)OCC)C1c1cc(OC)c(OC)cc1OC`, the “% Inhibition @ 10 uM” value is recorded as 0.219%. For `Nc1nc2ccccc2n1C(=O)CCc1ccccc1` the value was 5.65%; for `NS(=O)(=O)c1ccc(CCNC(=O)CN2C(=O)C3C4C=CC(CC4)C3C2=O)cc1` (stereo not shown), 2.8%; for `COc1ccc(-c2cc3c(=O)n(CC(=O)NCc4cc(Br)ccc4OC)ncn3n2)cc1`, 0.623%.

As to `Cc1cc(Cl)ccc1OCC(=O)Nc1ccc(N(C)C)cc1`, the “% Inhibition @ 10 uM” value was -3.37%. For `Cc1ccc(-c2nc(CS(=O)(=O)CC(=O)NCC(C)c3ccccc3)c(C)o2)cc1` (stereo not shown) the value was -1.89%; for `CC(C)=CCCC(C)CN1CCN(c2ccc(F)cc2)CC1` (stereo not shown), 1.7%; for `O=C(CN(CCc1ccccc1)S(=O)(=O)c1ccc(Cl)cc1)Nc1ccc2c(c1)OCO2`, -5.9%. For `COc1ccc(OC)c(C2C(C#N)=C(N)Oc3cc(N)ccc32)c1` (stereo not shown) the value was 3.01%; for `COc1ccc(-c2onc(C)c2C)cc1S(=O)(=O)N(Cc1cccs1)C1CCCC1`, 2.58%; for `CC1=C(C(=O)Nc2ccccc2)C(c2ccco2)C(C#N)=C(SCc2ccc(Cl)cc2)N1` (stereo not shown), 3.01%. With `FC(F)(F)c1ccccc1CN1CCN(c2ncccn2)CC1`, the “% Inhibition @ 10 uM” value is listed as -4.61%. For `C#CCN1C(=O)C(O)(CC(=O)c2ccc(C)cc2C)c2ccccc21` (stereo not shown) the value was 3.74%.

On to `COc1ccc(C(=O)NCC(=O)NC2=NCCS2)cc1`, for which the “% Inhibition @ 10 uM” value came out at 0.487%. The figure for `CCc1nn(CC(=O)N2CCCC2)c(=O)c2cccn12` is -2.78%.

Consider `COc1ccc(/C=C(/NC(=O)c2ccccc2Br)C(=O)NCC(=O)O)c(OC)c1`, for which the “% Inhibition @ 10 uM” value came to 22.9%. Consider `CCN1CCc2nc3sc4c(=O)[nH]c(=O)[nH]c4c3cc2C1`, for which the “% Inhibition @ 10 uM” value is listed as -4.14%.

`COc1ccc(-c2noc(CC(=O)Nc3cc(C)on3)n2)cc1`: the “% Inhibition @ 10 uM” value amounted to 3.28%. For `Cc1ccc(C(=O)Nc2sc3c(c2C#N)CCCC3)cc1` the value was -1.64%. On to `COc1ccc(C(=O)Nc2cccc(Br)c2)cc1`, for which the “% Inhibition @ 10 uM” value is on record as -1.56%. The figure for `CCn1c2ccccc2c2cc(C3C(C#N)=C(N)OC4=C3C(=O)CCC4)ccc21` (stereo not shown) is 15.8%. On to `CCc1nc2nc(C)cc(NCc3ccc(F)cc3)n2n1`, for which the “% Inhibition @ 10 uM” value is given as 0.974%. For the compound `Cc1ccc(NC(=O)c2ccccc2C(=O)O)cc1Br`, the “% Inhibition @ 10 uM” value was determined as 2.86%.

For `COC(=O)c1ccc2nc(Nc3nc4ccc(OC)cc4s3)sc2c1`, the “% Inhibition @ 10 uM” value stood at 8.34%. Turning to `O=C(NC1CCCCC1)N1CCN(c2ccccc2F)CC1`, the “% Inhibition @ 10 uM” value is -5.49%.

Take `CC1(C)CC(=O)C2=C(C1)OC(N)=C(C#N)C2c1ccc(-c2ccccc2)o1` (stereo not shown): the “% Inhibition @ 10 uM” value is -0.969%.

In the case of `CC1(C)CC(=O)c2cnc(NC(=O)C3CCCCC3)nc2C1`, the “% Inhibition @ 10 uM” value is listed as -1.05%. For the compound `OCCNCc1cccc(OCc2ccc(F)cc2)c1`, the “% Inhibition @ 10 uM” value is 0.315%. For `COc1cccc(-c2nc(-c3ccc(Cl)cc3)no2)c1` the value was -4%; for `COc1cc(C)c(CN2CCN(c3ccccc3F)CC2)cc1C`, -5.81%. For `CC(C)C[C@H](NC(=O)c1cc2c(-c3ccccc3)nn(C)c2s1)C(=O)NCC#N` the value was 2.87%. The figure for `CCOc1ccc(NC2=NC(=O)CC(C(=O)Nc3ccc(F)cc3)N2)cc1` (stereo not shown) is -1.55%; for `COc1ccc(-c2cc(C(=O)N3CCOCC3)c3ccccc3n2)cc1` it is 0.245%; for `Oc1ccccc1-c1nc(/C=C/c2ccc(Cl)cc2)no1` it is 1.72%. Turning to `O=C(O)c1ccc(NC(=O)c2ccc(N3C(=O)c4ccccc4C3=O)cc2)cc1`, the “% Inhibition @ 10 uM” value is recorded as 0.317%. The figure for `CCOCCCNC(=O)CNC(=S)N(Cc1ccccc1F)C1CCCCC1` is 2.9%; for `COc1ccc(CO/C(O)=C2\C(C)=NC3=C(C(=O)CCC3)C2c2cccc(OC)c2OC)cc1` (stereo not shown) it is -3.69%; for `CCOc1ccccc1N1CCN(Cc2ccc(Cl)cc2Cl)CC1` it is -2.08%. The figure for `O=C(Cn1ncc2ccccc21)N1CCc2ccccc2C1` is -3.47%.

Consider `O=c1c2cccnc2n(Cc2ccc(Cl)cc2)c(=O)n1Cc1ccco1`, for which the “% Inhibition @ 10 uM” value is on record as -1.66%. For `COc1ccc(CN2CCN(Cc3ccccc3F)CC2)c(OC)c1OC` the value was -6.27%. The figure for `Cc1ccc(C)c(NC(=O)c2ccccc2Br)c1` is 2.46%; for `COC(=O)c1ccc(CS(=O)(=O)c2ccccc2)o1` it is 0.111%; for `O=C(Nc1nc(-c2ccc(Cl)cc2)cs1)N1CCOCC1` it is -3.48%.

In the case of `CCOc1ccc(CC(=O)Nc2sc3c(c2C#N)CCC3)cc1OCC`, the “% Inhibition @ 10 uM” value was found to be 1.82%. The figure for `CC(C)n1c(NCc2cccs2)nc2ccccc21` is -3.5%; for `O=C(Cn1nc(Cc2cccnc2)c2ccccc2c1=O)NCCCN1CCCC1=O` it is -4.92%; for `CCc1ccc(CNC(=O)CCCn2c(=O)c3cccn3c3cccnc32)cc1` it is 1.63%. For `CC(C)CN(CCNC(=O)Cn1ncc2c3ccccc3n(C)c2c1=O)CC(C)C` the value was -3.35%. The figure for `O=C(O)c1nn2c(C(F)(F)F)cc(-c3ccco3)nc2c1Cl` is 5.31%; for `OCC1CCCCN1Cc1cccc(Cl)c1Cl` (stereo not shown) it is -2.36%; for `O=C(NC1CCCN(C(=O)OCc2ccccc2)CC1=O)C(CC(=O)N1CCOCC1)CS(=O)(=O)Cc1ccccc1` (stereo not shown) it is 1.35%. On to `Cc1ccc(NC(=O)CCc2nnc3ccc(N4CCC(C)CC4)nn23)nc1`, for which the “% Inhibition @ 10 uM” value is -1.39%.

Regarding `CCOC(=O)C1=C(O)/C(=C\c2ccc(Cl)cc2)N=C1C`, the “% Inhibition @ 10 uM” value stood at 3.76%. For `CCOC(=O)c1sc2nc(C)cc(COC)c2c1NC(=O)CN1CCCCC1` the value was -2.63%.

In the case of `O=S(=O)(c1ccc(-n2cccn2)cc1)N1CCN(C2CCCCC2)CC1`, the “% Inhibition @ 10 uM” value is given as -0.0621%. On to `CCOC(=O)c1cc2c(-c3cccc(OC)c3)nn(C)c2s1`, for which the “% Inhibition @ 10 uM” value turned out to be 7.39%. In the case of `CCn1c(C(=O)N2CCC(C(=O)NC(C)c3ccccc3)CC2)cc2sccc21` (stereo not shown), the “% Inhibition @ 10 uM” value was found to be 1.77%. The figure for `COc1cccc(Cn2cccc2C2=NC(CC(C)C)CO2)c1OC` (stereo not shown) is 0.163%; for `COc1ccc(NC(=O)C(=O)NC2CCCC2)cc1` it is 3.15%; for `COc1ccccc1CNS(=O)(=O)c1cc(-c2onc(C)c2C)ccc1C` it is -6.66%.

As to `COc1ccccc1/C=C/CN1CCN(CCOCCO)CC1`, the “% Inhibition @ 10 uM” value is listed as -0.0494%. The figure for `CN(C)c1ccc(NC(=O)Cn2nc(C(F)(F)F)cc2C2CC2)cc1` is -5.06%. For `CC(=O)C1=C(O)C(=O)N(C)C1c1ccc(Cl)cc1` (stereo not shown) the value was 5.8%; for `Cc1ccc2oc(=O)c3cc(C(=O)Nc4ccc(Cl)cn4)sc3c2c1`, -2.45%; for `O=c1/c(=C\c2ccc(F)cc2)sc2nc3cc(Br)cnc3n12`, 1.67%. For `Cc1ccc(-n2c(SCC(=O)c3ccccc3)nc3nncc-3c2O)cc1Cl` the value was 14.6%.

For the compound `Cc1c(CNCCc2ccccc2Cl)c(C(=O)O)c(C)n1Cc1ccccc1F`, the “% Inhibition @ 10 uM” value is -1.92%. The figure for `O=C(C(F)F)N1CCN(c2ccccc2)CC1` is -2.42%; for `CC(=O)NS(=O)(=O)c1ccc(NS(=O)(=O)c2ccccc2[N+](=O)[O-])cc1` it is -0.239%; for `CC1(C)CC(=O)c2cc(OCC(=O)NCCC3=CCCCC3)ccc2O1` it is -1.96%.

As for `COc1ccc2nc(-n3nc(C)cc3C)c(-n3nc(C)cc3C)nc2c1`, the “% Inhibition @ 10 uM” value is 15.3%. For `O=c1c(-c2ccccc2)coc2cc(OCc3ccccc3)ccc12` the value was -1.68%.

Consider `CCCC(=O)Nc1ccc(S(=O)(=O)N2CCC(C)CC2)cc1`, for which the “% Inhibition @ 10 uM” value is reported as -0.968%. The figure for `O=C(NCCCN1CCCc2ccccc21)Nc1cccc2ccccc12` is 3.32%. For `CC1C(c2ccccc2)=[N+]([O-])C(C)(c2ccc(Cl)cc2)N1O` (stereo not shown) the value was -7.45%; for `COc1cc(NC(=O)c2cc3ccccc3cc2O)c(OC)cc1NC(=O)c1cc2ccccc2cc1O`, 2.7%; for `CC(C)C(=O)Nc1ccc(NC(=O)COc2ccc(C(C)C)cc2)cc1`, -4.43%. The figure for `CCC(C(=O)Nc1ccc(Cl)c(Cl)c1)c1ccccc1` (stereo not shown) is -5.2%; for `Cc1ccc(-c2cc(C(=O)N3CC(C)CC(C)C3)c3ccccc3n2)o1` (stereo not shown) it is 2.84%; for `CC(=O)c1ccc(Nc2cc(C)nc3ncnn23)cc1` it is -0.0938%. For the compound `CCn1c2ccccc2c2cc(C3C4CCCC=C4C(C#N)=C(N)C3(C#N)C#N)ccc21` (stereo not shown), the “% Inhibition @ 10 uM” value came to 3.04%.

`COc1ccccc1CNC(=O)CCc1c(C)c2cc3c(C)coc3c(C)c2oc1=O`: the “% Inhibition @ 10 uM” value is recorded as -4.39%. The figure for `CC(=O)C1=C(O)C(=O)N(c2ccc(Br)cn2)C1c1ccc(Cl)cc1` (stereo not shown) is 1.94%. With `CC(=O)c1c(C)n(CCC2=CCCCC2)c2ccc(O)cc12`, the “% Inhibition @ 10 uM” value was -0.401%. `C#CCOc1c(Br)cc(C2C(C#N)=C(N)Oc3cc4c(cc32)OCO4)cc1OC` (stereo not shown): the “% Inhibition @ 10 uM” value is 3.87%. For `O=C(Nc1cccnc1Cl)c1nn2c(c1Cl)NC(c1ccco1)CC2C(F)(F)F` (stereo not shown) the value was -2.8%; for `N#CCSc1ncnc2scc(-c3ccc(Br)cc3)c12`, -5.6%. For `O=C(COCc1cc(-c2cccs2)on1)NCC1CCCO1` (stereo not shown) the value was -4.96%.

As for `Cc1[nH]c2ccccc2c1SCCNC(=O)C(C)(C)Oc1ccc(Cl)cc1`, the “% Inhibition @ 10 uM” value is reported as -3.27%. The figure for `O=C(C1CCN(S(=O)(=O)c2ccc3nc(O)ccc3c2)CC1)N1CCc2ccccc2C1` is 1.42%; for `Cc1ccc2oc(-c3cccc(N)c3C)nc2c1` it is -7.27%; for `Cc1cc(Br)ccc1OCC(=O)O/N=C(\N)c1cccnc1` it is -6.94%. For `N#CCCN1CCN(S(=O)(=O)c2ccc(S(=O)(=O)NCc3ccccc3)cc2)CC1` the value was 1.62%; for `COc1ccc(Nc2nc(N)c3ccccc3n2)c(OC)c1`, -2.29%; for `COC(=O)c1ccc(CNc2ccc(F)c(Cl)c2)cc1`, 0.273%. For `O=S(=O)(c1ccc2c(c1)Cc1cc(S(=O)(=O)N3CCCCC3)ccc1-2)N1CCCCC1` the value was -0.598%; for `Cc1cc(/C=c2\sc3nc4ccccc4n3c2=O)c(C)n1C(C)C`, 7.26%. For `CC1CCc2c(sc3nnn(CCc4ccccc4)c(=O)c23)C1` (stereo not shown), the “% Inhibition @ 10 uM” value is reported as -1.18%.

Regarding `O=C(COc1ccccc1)Nc1ccc(Cl)cc1C(=O)O`, the “% Inhibition @ 10 uM” value is -1.99%.
